PubChem BioAssay AID504466 (National Center for Advancing Translational Sciences (NCATS), 2011)
Hit rate of the full screen: of about 330,000 compounds, about 4,200 (1.3%) were called active. Inconclusive results, whose numbers are uncertain, are shown with a selection of clear calls. The call rests on the fitted dose curve; in most records, active means well fitted activation curve with a large enough effect; inconclusive means small, poorly fitted or top-dose-only effect; inactive means no such curve, though single readings can be large or run the other way. A potency beside an inconclusive call is a rough fit, not a confirmed value.

assay: qHTS screen for small molecules that induce genotoxicity in human embryonic kidney (HEK293T) cells expressing luciferase-tagged ELG1; details: HEK293T ELG1-luciferase reporter, luminescence, 16 h; series mostly up to 46 µM; further: nearly all actives have a fitted effect of over 60% in size
In short: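 Genotoxicity was scored as increased ELG1-luciferase reporter signal, measured by ONE-Glo luminescence (30 min, room temperature). Compound or vehicle exposure of the HEK293T reporter cells lasted 16 hr at 37°C.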
Potency means the concentration at half of the fitted maximal effect; tags describe the fitted curve by direction and shape.

SMILES	Potency
COc1ccc(-c2cc(C(=O)N3CCCCC3)no2)cc1OC	inconclusive: 11.6 µM [activator, partial curve, poor fit]
COCCN(C(=O)COC(=O)CSc1ccc(Cl)cc1)c1c(N)n(Cc2ccccc2)c(=O)[nH]c1=O	inactive
Cc1ccc(-c2nc3ncccc3o2)cc1N	inconclusive: 16.4 µM [activator, partial curve]
CCCSc1nnc(Nc2ccccc2C)s1	inconclusive: 13 µM [activator, partial curve]
C(=N\N1CCN(c2ccccc2)CC1)/c1ccccc1	inconclusive: 8.2 µM [activator, partial curve, poor fit]
CC(=O)Nc1ccc(-c2cc(C(=O)O)c3ccc(C)cc3n2)cc1	inactive
CC(=O)c1cccc(N(CC(=O)NC2CCCCC2)C(=O)Cn2nnc(-c3ccccc3)n2)c1	inactive
CC(=O)c1ccc(OCc2cc(C(=O)NC(C)CCn3cccn3)no2)cc1 (stereo unspecified)	active: 18.3 µM
CC(C)Sc1nc(SCC(=O)NCc2ccco2)c2c3c(sc2n1)COC(C)(C)C3	inconclusive: 23.1 µM [activator, single point]
CC1CCC/C(=N\Nc2ccc(Cl)c(C(=O)O)c2)C1 (stereo unspecified)	inconclusive: 20.6 µM [activator, single point]
Cn1c2ccc(F)cc2c2nc3ccccc3nc21	inconclusive: 18.3 µM [activator, partial curve, poor fit]
N#Cc1c(NC(=S)NC(=O)c2ccccc2)sc2c1CCC2	inconclusive: 23.1 µM [activator, partial curve, poor fit]
COc1ccc(/C(C)=N/OCC(=O)N=Nc2c(O)[nH]c3ccc(Br)cc23)cc1	inactive
COc1ccc(/C(C)=N/NC(=O)CNC(=O)c2cccs2)cc1	inconclusive: 23.1 µM [activator, partial curve, poor fit]
N#C/C(=C\c1ccccc1)C(=O)OCC(=O)N1CCCC1	inactive
O=C(/C=C/c1ccc[nH]1)c1ccc(F)cc1	inconclusive: 14.6 µM [activator, partial curve, poor fit]
COc1ccc(CN2C(=O)CN=C2Nc2cc(C)ccc2C)cc1	active: 18.4 µM
CCCn1c(SCC(=O)N(C)CC(=O)Nc2ccc(C)cc2)n[nH]c1=O	inactive
Cc1ccc(S(=O)(=O)N/N=C\c2ccc([N+](=O)[O-])o2)cc1	inconclusive: 18.4 µM [activator, partial curve, poor fit]
Cc1ccc(-c2nc3cc(NC(=O)C(C)C)ccc3o2)cc1C	inconclusive: 0.651 µM [activator, partial curve]
O=S(=O)(Cc1cc(Cl)nc(-c2ccncc2)n1)c1ccccc1	inconclusive: 32.6 µM [activator, partial curve, poor fit]
CCc1ccc(S(=O)(=O)/N=C2\C=C(NS(=O)(=O)c3ccccc3)C(=O)c3ccccc32)cc1	inconclusive: 23.1 µM [activator, partial curve, poor fit]
COc1ccccc1CCNC(=O)Cc1cccs1	inactive

SMILES	Potency
C/C(=N\NC(=O)c1ccn(C)n1)c1cccc(NC(=O)c2ccc(C)s2)c1	inactive
COc1ccc(/C=C2\CCC(C3CCCC3)C2=O)cc1OC (stereo unspecified)	inconclusive: 20.6 µM [activator, partial curve, poor fit]
Nn1c(-c2cccs2)nc2sc3c(c2c1=O)CCCC3	active: 2.31 µM
Cc1ccc(C)c(OCc2cc(C(=O)N3CC[C@@H]4CCCC[C@H]4C3)no2)c1	inconclusive: 11.6 µM [activator, partial curve]
Cn1c(=O)cc(SCC(=O)Nc2ccccn2)c2ccccc21	inconclusive: 20.6 µM [activator, partial curve, poor fit]
O=C(NCCc1ccccc1)C(c1ccc(F)cc1)N(C(=O)c1csnn1)C1CC1 (stereo unspecified)	inactive
O=C(Nc1cccc([N+](=O)[O-])c1)N1CCc2ccccc2C1	inconclusive: 6.51 µM [activator, partial curve]
Cc1cccc(C(=O)Oc2ccccc2/C=N/NC(=O)c2ccc(NC(=O)C(C)(C)C)cc2)c1	inactive
O=C(Nc1cccnc1Cl)c1cc(-c2cccc(O)c2)on1	inconclusive: 4.61 µM [activator, full curve, poor fit]
C/C(=N\OCc1ccc(C#N)cc1)c1ccccc1	active: 18.3 µM
O=C(Cn1nnc(-c2ccccc2)n1)N1CCCCC1	inconclusive: 23.1 µM [activator, partial curve, poor fit]
CC(C)(C)OC(=O)N/N=C/c1ccc(Br)cc1	inconclusive: 14.1 µM [activator, partial curve]
CNc1nc(Cl)nc(Nc2ccccc2)n1	inconclusive: 23.1 µM [activator, partial curve, poor fit]
O=C(NC1=NCCS1)c1sc2ccccc2c1Cl	active: 2.91 µM
O=C(Nc1ccc2c(c1)CCC2)c1ccc(F)cc1	active: 1.64 µM
COc1ccc(NC2=NC(=S)N(c3cccc(C)c3)C23CCCCC3)cc1	inconclusive: 32.6 µM [activator, partial curve, poor fit]
Cc1ccc(C(=O)CCC(=O)Nc2cccc(C)c2)cc1	inactive
COc1cc(NC(C)=O)ccc1NC(=O)c1cc2ccccc2o1	inconclusive: 9.2 µM [activator, partial curve, poor fit]
COc1ccc(CNc2ncccc2[N+](=O)[O-])cc1	inconclusive: 16.4 µM [activator, partial curve, poor fit]
OCc1cc(Br)ccc1OCc1nc2ccccc2s1	inconclusive: 0.73 µM [activator, single point]
Cn1c(CNc2ccc(Br)cc2)nc2ccccc21	inconclusive: 3.26 µM [activator, full curve]
COc1ccc(NC(=S)NNc2ccc(C(=O)O)cc2)cc1	inconclusive: 13 µM [activator, single point]
Cc1ccc2nc(N(CCCN(C)C)C(=O)c3ccco3)sc2c1	inconclusive: 13 µM [activator, partial curve, poor fit]
